# Source: PubChem BioAssay AID651820 (National Center for Advancing Translational Sciences (NCATS), 2012)
# Several values for one entry are separate records, joined by “and”; a condition that tells them apart may be missing. Equal entries are not always repeated. Hit rate of the full screen: of about 340,000 compounds, about 12,000 (3.5%) were called active. Inconclusive means that the source gave no clear call. Such entries were picked first, then a sample of the others. Calls come from the whole dose curve; as a rule, active = well fitted inhibition curve with a large enough effect; inconclusive = small, poorly fitted or top-dose-only effect, or another doubt; inactive = no such curve, though single readings can be large or run the other way. Where the call is inconclusive, the potency comes from a doubtful curve fit.
# Experiment: qHTS Assay for Inhibitors of Hepatitis C Virus (HCV)
# Settings: Huh7.5.1 HCVcc-Cre (HCVcc is cell-culture hepatitis C virus) infection, luciferase reporter, 44 h; activity change, negative = inhibition: at 41.8 µM (top of the series) unless noted
# In short: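 1,000 cells/well; 4 h culture; + compound; + HCVcc-Cre (~0.5 moi); 44 h; luciferase substrate, RT 15 min; read 15 sec.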
# % is set by controls: 0 for no effect and ±100 for the full control effect; potency is the fitted concentration of half-maximal effect; tags give direction and shape of the fitted curve.
Compound,"activity change, negative = inhibition",Potency
O=C(Nc1nnc(SCCC2OCCO2)s1)C1CC(=O)N(c2ccccc2)C1 (configuration not stated),inactive: 13.1%,
CCC(CC)COC(=O)C1=C(C)NC(=O)NC1c1cccc([N+](=O)[O-])c1 (configuration not stated),,"inconclusive: 31.6 µM [inhibitor, single point]"
O=C(NCCN1CCN(c2ccccc2)CC1)Nc1cccc(Br)c1,,active: 14.1 µM
CCOC(=O)CC(=O)CSc1nc(-c2ccccc2)cc(-c2ccccc2)c1C#N,,"inconclusive: 8.91 µM [inhibitor, partial curve]"
CC(=O)O[C@H]1C(=O)[C@@]2(C)C([C@H](OC(=O)c3ccccc3)[C@]3(O)C[C@H](O)C(C)=C1C3(C)C)[C@]1(OC(C)=O)CO[C@@H]1C[C@H]2O (some centres not stated),,"inconclusive: 7.94 µM [inhibitor, partial curve]"
CCCOc1ccc2c(C)c(CC(=O)OC)c(=O)oc2c1,,"inconclusive: 22.4 µM [inhibitor, single point]"
COc1ccc(S(=O)(=O)NCC2CCCN(C(=O)CC3CCCC3)C2)cc1 (configuration not stated),,"inconclusive: 14.1 µM [inhibitor, single point]"
O=C1OCCN1C(=O)[C@H]1[C@H](c2ccc([N+](=O)[O-])cc2)C(c2ccc(F)cc2)=NN1c1ccc(Br)cc1,inactive: -56.2%,
CC1CCN(CC(=O)Nc2ccc(S(=O)(=O)N3CCCC(C)C3)cc2)CC1 (configuration not stated),,"inconclusive: 14.1 µM [inhibitor, single point]"
CN(C)S(=O)(=O)c1cccc(-c2csc(=Nc3ccccc3)n2CCCN2CCOCC2)c1,,"inconclusive: 31.6 µM [inhibitor, single point]"
CC(Oc1ccc2c(-c3ccccc3)cc(=O)oc2c1)C(=O)NCC1CCC(C(=O)O)CC1 (configuration not stated),,"inactive and inconclusive: 562 nM [inhibitor, full curve]"
Cc1ccc(-n2ncc3c(SCc4ccccn4)ncnc32)c(C)c1,,"inconclusive: 10 µM [inhibitor, partial curve]"
Fc1cccc(/C=C2\CCCC3=C2NC(=S)NC3c2cccc(F)c2)c1 (configuration not stated),,active: 8.91 µM
COc1ccccc1NS(=O)(=O)c1cc(-c2cc(C)no2)ccc1OC,,"inconclusive: 31.6 µM [inhibitor, single point]"
COc1cccc(NC(=O)c2ccc(NC(C)=O)cc2)c1,inactive: -8.32%,
Cc1ccc(CSC2=Nc3sccc3C3=NC(=O)CN23)cc1,,"inconclusive: 10 µM [inhibitor, partial curve]"
COc1cc(-c2nc(-c3ccc4c(c3)-c3ccccc3S4(=O)=O)c(-c3ccccc3)[nH]2)cc(OC)c1O,,"inconclusive: 2.24 µM [inhibitor, full curve]"
